Some of the results follow. These are enrichments in a pooled selection; single values are uncertain. Each score is taken over the longer molecules that contain the sequence shown.
What follows are sequences tested on IMP3 RRM1-2 (assay: 6-mer SELEX enrichment z-score vs GST control; IMP3 is the RNA-binding protein IGF2BP3; higher = more enriched by binding). Conditions: construct: RRM1-2 (1-163); SELEX round: R2.
Description: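 SELEX-seq with GST-tagged IMP3 RRM1-2 (Met1-Asn163) and an N40 RNA pool, round 2. 6-mer enrichment z-score normalised to GST SELEX. RNA written as DNA (T = U).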

Sequence of IMP3 RRM1-2 (chain, as listed by the source): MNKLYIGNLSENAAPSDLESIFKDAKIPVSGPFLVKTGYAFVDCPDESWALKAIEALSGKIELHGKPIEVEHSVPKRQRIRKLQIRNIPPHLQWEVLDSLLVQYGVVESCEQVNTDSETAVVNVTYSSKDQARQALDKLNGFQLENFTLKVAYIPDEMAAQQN

Sequence | 6-mer SELEX enrichment z-score
TATCAG | 0.713
CGATCG | -0.246
GTCGGA | 0.216
CCGGCA | 0.186
ACTTCT | 0.281
GTTGAC | -0.294
GAATCC | -0.994
TCTGGA | 0.011
GGAGTC | -0.072
TGGTGA | 0.006
GGGTGC | 0.241
CGCTCT | 0.186
ATATGG | 0.177
ATTCAG | 1.24
GAGATC | -0.287
TACGCC | -0.31
GCATTT | 0.715
TTTGGA | 0.087
GGATTT | 0.1
CACCGC | 0.195

Sequence | 6-mer SELEX enrichment z-score
ACACAG | 3.17
ATATGC | -0.124
AAGGAA | -1.25
AAAATA | -2.25
TGCGAT | -0.231
CAGGCA | 1.25
CATCAG | 2.73
GTCCCA | -0.123
TCCTGC | -0.049
TCCCGG | -0.261
TGCTCC | 0.02
TAGCAG | 0.218
ACTGTT | 0.008
TAGAGT | 0.019
GTACTC | 0.144
CGGTCA | 0.198
CTTGCA | 0.28
AGCATT | 0.886
TCGATA | -0.173
CGCTTA | 0.001

From the supplement of paper PMC6531468
